{
  "source": "the supplement of paper PMC8728848",
  "assay_in_all_cases": "glycan array binding signal (z-score within array); higher = stronger binding",
  "details_in_all_cases": "glycan notation: IUPAC condensed, linker removed",
  "key": {"[1]": {"biological_target": "Gal(b1-4)GlcNAc(b1-3)Gal(b1-4)GlcNAc(b1-3)Gal(b1-4)GlcNAc(b1-2)Man(a1-3)[Gal(b1-4)GlcNAc(b1-3)Gal(b1-4)GlcNAc(b1-3)Gal(b1-4)GlcNAc(b1-2)Man(a1-6)]Man(b1-4)GlcNAc(b1-4)[Fuc(a1-6)]GlcNAc", "summary_of_the_method": "(§1)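 Glycan array binding is given as a within-array Z-score, which can be read as non-binding when negative. The arrays, 3228 of them, came from the Consortium for Functional Glycomics database and were retained only where the protein sequence was available. Z-scores were averaged across arrays of the same protein sequence at different concentrations or buffers and across linkers.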"}, "[2]": {"biological_target": "Gal(b1-4)GlcNAc(b1-3)Gal(b1-4)GlcNAc(b1-3)Gal(b1-4)GlcNAc(b1-2)[Gal(b1-4)GlcNAc(b1-3)Gal(b1-4)GlcNAc(b1-3)Gal(b1-4)GlcNAc(b1-6)]Man(a1-6)[Gal(b1-4)GlcNAc(b1-3)Gal(b1-4)GlcNAc(b1-3)Gal(b1-4)GlcNAc(b1-2)Man(a1-3)]Man(b1-4)GlcNAc(b1-4)[Fuc(a1-6)]GlcNAc", "summary_of_the_method": "as §1"}, "[3]": {"biological_target": "Gal(b1-4)GlcNAc(b1-3)Gal(b1-4)GlcNAc(b1-3)Gal(b1-4)GlcNAc(b1-3)Gal(b1-4)GlcNAc(b1-2)Man(a1-3)[Gal(b1-4)GlcNAc(b1-3)Gal(b1-4)GlcNAc(b1-3)Gal(b1-4)GlcNAc(b1-3)Gal(b1-4)GlcNAc(b1-2)Man(a1-6)]Man(b1-4)GlcNAc(b1-4)GlcNAc", "summary_of_the_method": "as §1"}, "[4]": {"biological_target": "Gal(b1-4)GlcNAc(b1-3)Gal(b1-4)GlcNAc(b1-3)Gal(b1-4)GlcNAc(b1-3)Gal(b1-4)GlcNAc(b1-2)Man(a1-3)[Gal(b1-4)GlcNAc(b1-3)Gal(b1-4)GlcNAc(b1-3)Gal(b1-4)GlcNAc(b1-3)Gal(b1-4)GlcNAc(b1-2)Man(a1-6)]Man(b1-4)GlcNAc(b1-4)[Fuc(a1-6)]GlcNAc", "summary_of_the_method": "as §1"}, "[5]": {"biological_target": "Gal(b1-4)GlcNAc(b1-3)Gal(b1-4)GlcNAc(b1-3)Gal(b1-4)GlcNAc(b1-3)Gal(b1-4)GlcNAc(b1-2)[Gal(b1-4)GlcNAc(b1-3)Gal(b1-4)GlcNAc(b1-3)Gal(b1-4)GlcNAc(b1-3)Gal(b1-4)GlcNAc(b1-6)]Man(a1-6)[Gal(b1-4)GlcNAc(b1-3)Gal(b1-4)GlcNAc(b1-3)Gal(b1-4)GlcNAc(b1-3)Gal(b1-4)GlcNAc(b1-2)Man(a1-3)]Man(b1-4)GlcNAc(b1-4)[Fuc(a1-6)]GlcNAc", "summary_of_the_method": "as §1"}, "[6]": {"biological_target": "Gal(b1-4)GlcNAc(b1-3)Gal(b1-4)GlcNAc(b1-3)Gal(b1-4)GlcNAc(b1-3)Gal(b1-4)GlcNAc(b1-3)Gal(b1-4)GlcNAc(b1-2)Man(a1-3)[Gal(b1-4)GlcNAc(b1-3)Gal(b1-4)GlcNAc(b1-3)Gal(b1-4)GlcNAc(b1-3)Gal(b1-4)GlcNAc(b1-3)Gal(b1-4)GlcNAc(b1-2)Man(a1-6)]Man(b1-4)GlcNAc(b1-4)GlcNAc", "summary_of_the_method": "as §1"}, "[7]": {"biological_target": "Gal(b1-4)GlcNAc(b1-3)Gal(b1-4)GlcNAc(b1-3)Gal(b1-4)GlcNAc(b1-3)Gal(b1-4)GlcNAc(b1-3)Gal(b1-4)GlcNAc(b1-2)Man(a1-3)[Gal(b1-4)GlcNAc(b1-3)Gal(b1-4)GlcNAc(b1-3)Gal(b1-4)GlcNAc(b1-3)Gal(b1-4)GlcNAc(b1-3)Gal(b1-4)GlcNAc(b1-2)Man(a1-6)]Man(b1-4)GlcNAc(b1-4)[Fuc(a1-6)]GlcNAc", "summary_of_the_method": "as §1"}, "[8]": {"biological_target": "Gal(b1-4)GlcNAc(b1-3)Gal(b1-4)GlcNAc(b1-3)Gal(b1-4)GlcNAc(b1-3)Gal(b1-4)GlcNAc(b1-3)Gal(b1-4)GlcNAc(b1-2)[Gal(b1-4)GlcNAc(b1-3)Gal(b1-4)GlcNAc(b1-3)Gal(b1-4)GlcNAc(b1-3)Gal(b1-4)GlcNAc(b1-3)Gal(b1-4)GlcNAc(b1-6)]Man(a1-6)[Gal(b1-4)GlcNAc(b1-3)Gal(b1-4)GlcNAc(b1-3)Gal(b1-4)GlcNAc(b1-3)Gal(b1-4)GlcNAc(b1-3)Gal(b1-4)GlcNAc(b1-2)Man(a1-3)]Man(b1-4)GlcNAc(b1-4)[Fuc(a1-6)]GlcNAc", "summary_of_the_method": "as §1"}, "[9]": {"biological_target": "Gal(b1-4)GlcNAc(b1-3)Gal(b1-4)GlcNAc(b1-3)Gal(b1-4)GlcNAc(b1-3)Gal(b1-4)GlcNAc(b1-3)Gal(b1-4)GlcNAc(b1-3)Gal(b1-4)GlcNAc(b1-2)Man(a1-3)[Gal(b1-4)GlcNAc(b1-3)Gal(b1-4)GlcNAc(b1-3)Gal(b1-4)GlcNAc(b1-3)Gal(b1-4)GlcNAc(b1-3)Gal(b1-4)GlcNAc(b1-3)Gal(b1-4)GlcNAc(b1-2)Man(a1-6)]Man(b1-4)GlcNAc(b1-4)GlcNAc", "summary_of_the_method": "as §1"}, "[10]": {"biological_target": "Gal(b1-4)GlcNAc(b1-3)Gal(b1-4)GlcNAc(b1-3)GalNAc", "summary_of_the_method": "as §1"}, "[11]": {"biological_target": "Gal(b1-4)GlcNAc(b1-3)Gal(b1-4)GlcNAc(b1-3)[Gal(b1-4)GlcNAc(b1-3)Gal(b1-4)GlcNAc(b1-6)]GalNAc", "summary_of_the_method": "as §1"}, "[12]": {"biological_target": "Gal(b1-4)GlcNAc(b1-3)Gal(b1-4)GlcNAc(b1-6)[Gal(b1-3)]GalNAc", "summary_of_the_method": "as §1"}, "[13]": {"biological_target": "Gal(b1-4)GlcNAc(b1-3)Gal(b1-4)[Fuc(a1-3)]GlcNAc(b1-3)Gal(b1-4)[Fuc(a1-3)]GlcNAc", "summary_of_the_method": "as §1"}, "[14]": {"biological_target": "Gal(b1-4)GlcNAc(b1-3)GalNAc", "summary_of_the_method": "as §1"}, "[15]": {"biological_target": "Gal(b1-4)GlcNAc(b1-3)[Fuc(a1-3)GlcNAc(b1-6)]Gal(b1-4)Glc", "summary_of_the_method": "as §1"}, "[16]": {"biological_target": "Gal(b1-4)GlcNAc(b1-3)[Gal(b1-4)GlcNAc(b1-6)]Gal(b1-4)GlcNAc", "summary_of_the_method": "as §1"}, "[17]": {"biological_target": "Gal(b1-4)GlcNAc(b1-3)[GlcNAc(b1-6)]Gal(b1-4)GlcNAc", "summary_of_the_method": "as §1"}, "[18]": {"biological_target": "Gal(b1-4)GlcNAc(b1-6)Gal(b1-4)GlcNAc", "summary_of_the_method": "as §1"}, "[19]": {"biological_target": "Gal(b1-4)GlcNAc(b1-6)GalNAc", "summary_of_the_method": "as §1"}},
  "note": "The other results are listed elsewhere or left out.",
  "data": [
    {"binder": "Pbx1 (Cryptococcus neoformans) (protein) ATTKCLVSGDQDSINNALALGGEGTTVTLCPGSVHRLNSSIIFTAPSQTLTTLGNPKDRNRAMLVVDGEDLACAIRADCKQCSHAMIRSLVIDGNRPQLLRIPKGDALIEVGNAESQTVRDCKLYEPRGWSALHFREGDERQCRFGHIVDNEIGPCGEEWDDEYDSMDETKPLWGNPRADGISLACKDSIVERNVVYDATDGAIVLFGSAGSTVKNNHVYARTRVILGGINLVDYEPWDGDYTNVKVHHNHLYALGRYFKVGIVIGPASWSDDTESVVHSASVTDNEFSGGYWGYGIVVASAKNFEVLRNKVIWDGEQGVARFSGVPGSRCPKAPENGKPTAFLINRGSAKGIFQDDFVNGEVQHIICLNPDQDPPYKPWRFRDSPEAIAAKQAENPTANSAFDSRIAEALVSYQMSLLNSMDAMTQKVEHLTNPIVDDALPFVHEHERAEADKKARQEASRKEKESGNKDVDMLNVKVEELEKSGRRLKKALDGLKSDFEGLSGRLKKSADENKPIIETIFVTSQNLLLGATSQQN", "values": [
      {"measurement": "glycan array binding signal (z-score)", "setting": "[1]", "result": 0.691},
      {"measurement": "glycan array binding signal (z-score)", "setting": "[2]", "result": 0.991},
      {"measurement": "glycan array binding signal (z-score)", "setting": "[3]", "result": 0.501},
      {"measurement": "glycan array binding signal (z-score)", "setting": "[4]", "result": -0.553},
      {"measurement": "glycan array binding signal (z-score)", "setting": "[5]", "result": -0.055},
      {"measurement": "glycan array binding signal (z-score)", "setting": "[6]", "result": 0.178},
      {"measurement": "glycan array binding signal (z-score)", "setting": "[7]", "result": 5.6},
      {"measurement": "glycan array binding signal (z-score)", "setting": "[8]", "result": 4.38},
      {"measurement": "glycan array binding signal (z-score)", "setting": "[9]", "result": 1.03},
      {"measurement": "glycan array binding signal (z-score)", "setting": "[10]", "result": -0.312},
      {"measurement": "glycan array binding signal (z-score)", "setting": "[11]", "result": -0.195},
      {"measurement": "glycan array binding signal (z-score)", "setting": "[12]", "result": 2.33},
      {"measurement": "glycan array binding signal (z-score)", "setting": "[13]", "result": -0.58},
      {"measurement": "glycan array binding signal (z-score)", "setting": "[14]", "result": -0.69},
      {"measurement": "glycan array binding signal (z-score)", "setting": "[15]", "result": -0.416},
      {"measurement": "glycan array binding signal (z-score)", "setting": "[16]", "result": -0.545},
      {"measurement": "glycan array binding signal (z-score)", "setting": "[17]", "result": -0.407},
      {"measurement": "glycan array binding signal (z-score)", "setting": "[18]", "result": -0.231},
      {"measurement": "glycan array binding signal (z-score)", "setting": "[19]", "result": -0.106}
    ]}
  ]
}
